The other results are listed elsewhere or left out. The full chains were built here from the parent and the listed change. Inactive controls read about 0.05.
B1: TEV protease; numbered along this chain (parent)
chain: MGESLFKGPRDYNPISSSICHLTNESDGHTTSLYGIGFGPFIITNKHLFRRNNGTLVVQSLHGVFKVKDTTTLQQHLVDGRDMIIIRMPKDFPPFPQKLKFREPQREERICLVTTNFQTKSMSSMVSDTSCTFPSGDGIFWKHWIQTKDGQCGSPLVSTRDGFIVGIHSASNFTNTNNYFTSVPKNFMELLTNQEAQQWVSGWRLNADSVLWGGHKVFMVKPEEPFQPVKEATQL

Variants of: B1
Assay: raw area under fraction-flipped curve 0-4 h after induction (AUC4h, not background-subtracted), DNA-recorder readout of cleavage of the substrate (dimensionless); higher = more cleavage of the substrate by the protease variant
Details: temperature: 34 °C; time window: 0-4 h after rhamnose induction
Procedure: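 In vivo DNA recorder in E. coli TOP10(DE3) ΔrhaA at 34 °C. Each TEVp single-site mutant (parent TEVp 0) is paired with a single-site variant of the 7-mer TEVs (canonical ENLYFQ|S). The substrate sits between flexible linkers in a Bxb1-sfGFP-TEVs-SsrA fusion, so cleavage stabilises Bxb1 and speeds flipping of a recombination array, read by NGS. The value is the raw area under the fraction-flipped curve over 0-4 h after rhamnose induction (AUC4h), with ≥20 reads per time point. It is not background-subtracted; inactive controls average about 0.047.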
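Note: Bxb1 expression induced with 0.2% (w/v) L-rhamnose at OD600 near 0.5, cultures sampled hourly, flipped fraction per protease–substrate barcode pair counted by paired-end Illumina sequencing.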

Row | Variant | area with substrate ENLYFAS | area with substrate ENLYFCS | area with substrate ENLYFDS | area with substrate ENLYFES | area with substrate ENLYFFS | area with substrate ENLYFHS | area with substrate ENLYFIS | area with substrate ENLYFKS | area with substrate ENLYFLS | area with substrate ENLYFMS | area with substrate ENLYFNS | area with substrate ENLYFPS | area with substrate ENLYFRS | area with substrate ENLYFTS | area with substrate ENLYFVS | area with substrate ENLYFWS | area with substrate ENLYFGS | area with substrate ENLYFSS | area with substrate ENLYFYS
1 | MGESLFKGPRDYNPISSSICHLTNESDGHTTSLYGIGFGPFIITNKHLFRRNGGTLVVQSLHGVFKVKDTTTLQQHLVDGRDMIIIRMPKDFPPFPQKLKFREPQREERICLVTTNFQTKSMSSMVSDTSCTFPSGDGIFWKHWIQTKDGQCGSPLVSTRDGFIVGIHSASNFTNTNNYFTSVPKNFMELLTNQEAQQWVSGWRLNADSVLWGGHKVFMVKPEEPFQPVKEATQL [N53G] | 0.0563 | 0.0666 | 0.056 | 0.0668 | 0.0535 | 0.0652 | 0.0586 | 0.045 | 0.0582 | 0.0577 | 0.0664 | 0.0617 | 0.0488 | 0.0608 | 0.0627 | 0.0601 | – | – | –
2 | MGESLFKGPRDYNPISSSICHLTNESDGHTTSLYGIGFGPFIITNKHLFRRNAGTLVVQSLHGVFKVKDTTTLQQHLVDGRDMIIIRMPKDFPPFPQKLKFREPQREERICLVTTNFQTKSMSSMVSDTSCTFPSGDGIFWKHWIQTKDGQCGSPLVSTRDGFIVGIHSASNFTNTNNYFTSVPKNFMELLTNQEAQQWVSGWRLNADSVLWGGHKVFMVKPEEPFQPVKEATQL [N53A] | 0.0586 | 0.0657 | – | 0.0272 | 0.0741 | 0.06 | 0.0569 | 0.0742 | 0.0594 | 0.0508 | 0.0626 | 0.0571 | 0.0674 | 0.0672 | 0.0679 | – | 0.0674 | 0.0608 | 0.0578
3 | MGESLFKGPRDYNPISSSICHLTNESDGHTTSLYGIGFGPFIITNKHLFRRYNGTLVVQSLHGVFKVKDTTTLQQHLVDGRDMIIIRMPKDFPPFPQKLKFREPQREERICLVTTNFQTKSMSSMVSDTSCTFPSGDGIFWKHWIQTKDGQCGSPLVSTRDGFIVGIHSASNFTNTNNYFTSVPKNFMELLTNQEAQQWVSGWRLNADSVLWGGHKVFMVKPEEPFQPVKEATQL [N52Y] | 0.066 | 0.0532 | 0.0619 | 0.0628 | 0.0588 | – | 0.0675 | 0.0638 | – | 0.0596 | 0.0561 | 0.0614 | 0.0522 | 0.0481 | 0.0768 | – | 0.0556 | 0.0559 | 0.0616
4 | MGESLFKGPRDYNPISSSICHLTNESDGHTTSLYGIGFGPFIIQNKHLFRRNNGTLVVQSLHGVFKVKDTTTLQQHLVDGRDMIIIRMPKDFPPFPQKLKFREPQREERICLVTTNFQTKSMSSMVSDTSCTFPSGDGIFWKHWIQTKDGQCGSPLVSTRDGFIVGIHSASNFTNTNNYFTSVPKNFMELLTNQEAQQWVSGWRLNADSVLWGGHKVFMVKPEEPFQPVKEATQL [T44Q] | 0.0271 | 0.0384 | – | 0.0332 | 0.0511 | 0.0411 | 0.0348 | – | – | 0.047 | 0.0199 | 0.0493 | 0.0368 | – | 0.033 | 0.0411 | 0.0552 | – | 0.0424
5 | MGESLFKGPRDYNPISSSICHLTNESDGHTTSLYGIGFGPFIITNKHLFRRNNGELVVQSLHGVFKVKDTTTLQQHLVDGRDMIIIRMPKDFPPFPQKLKFREPQREERICLVTTNFQTKSMSSMVSDTSCTFPSGDGIFWKHWIQTKDGQCGSPLVSTRDGFIVGIHSASNFTNTNNYFTSVPKNFMELLTNQEAQQWVSGWRLNADSVLWGGHKVFMVKPEEPFQPVKEATQL [T55E] | 0.0681 | 0.0569 | 0.0707 | 0.0633 | 0.0507 | 0.0551 | 0.0476 | – | – | 0.0722 | – | 0.0549 | 0.052 | 0.0371 | 0.0619 | 0.0719 | 0.0566 | – | –
6 | MGESLFKGPRDYNPISSSICHLTNESDGHTTSLYGIGFGPFIITNKHLFLRNNGTLVVQSLHGVFKVKDTTTLQQHLVDGRDMIIIRMPKDFPPFPQKLKFREPQREERICLVTTNFQTKSMSSMVSDTSCTFPSGDGIFWKHWIQTKDGQCGSPLVSTRDGFIVGIHSASNFTNTNNYFTSVPKNFMELLTNQEAQQWVSGWRLNADSVLWGGHKVFMVKPEEPFQPVKEATQL [R50L] | 0.043 | – | – | 0.0758 | 0.0545 | 0.0476 | 0.0569 | 0.056 | 0.0665 | 0.0656 | – | 0.0468 | – | 0.0576 | 0.0624 | 0.0505 | – | 0.0672 | –
7 | MGESLFKGPRDYNPISSSICHLTNESDGHTTSLYGIGFGPFIITNEHLFRRNNGTLVVQSLHGVFKVKDTTTLQQHLVDGRDMIIIRMPKDFPPFPQKLKFREPQREERICLVTTNFQTKSMSSMVSDTSCTFPSGDGIFWKHWIQTKDGQCGSPLVSTRDGFIVGIHSASNFTNTNNYFTSVPKNFMELLTNQEAQQWVSGWRLNADSVLWGGHKVFMVKPEEPFQPVKEATQL [K46E] | 0.0583 | 0.0566 | – | – | 0.0721 | – | 0.0601 | – | 0.0505 | 0.0526 | 0.0529 | 0.0599 | – | 0.0574 | 0.0678 | – | – | 0.0503 | 0.0513
8 | MGESLFKGPRDYNPISSSICHLTNESDGHTTSLYGIGFGPFIITNFHLFRRNNGTLVVQSLHGVFKVKDTTTLQQHLVDGRDMIIIRMPKDFPPFPQKLKFREPQREERICLVTTNFQTKSMSSMVSDTSCTFPSGDGIFWKHWIQTKDGQCGSPLVSTRDGFIVGIHSASNFTNTNNYFTSVPKNFMELLTNQEAQQWVSGWRLNADSVLWGGHKVFMVKPEEPFQPVKEATQL [K46F] | 0.0627 | 0.0522 | – | 0.0533 | 0.0655 | – | 0.0532 | – | 0.0509 | 0.0336 | – | 0.0545 | 0.0773 | 0.0613 | 0.0593 | 0.062 | – | 0.0548 | 0.0524
9 | MGESLFKGPRDYNPISSSICHLTNESDGHTTSLYGIGFGPFIITNRHLFRRNNGTLVVQSLHGVFKVKDTTTLQQHLVDGRDMIIIRMPKDFPPFPQKLKFREPQREERICLVTTNFQTKSMSSMVSDTSCTFPSGDGIFWKHWIQTKDGQCGSPLVSTRDGFIVGIHSASNFTNTNNYFTSVPKNFMELLTNQEAQQWVSGWRLNADSVLWGGHKVFMVKPEEPFQPVKEATQL [K46R] | 0.0589 | – | – | 0.0703 | 0.0707 | 0.0609 | 0.0478 | – | 0.0523 | 0.0691 | 0.0587 | 0.0662 | 0.0581 | 0.0562 | – | 0.0571 | – | – | –

From the supplement of paper PMC12217912
